{"source": "PubChem BioAssay AID624172", "about": "(National Center for Advancing Translational Sciences (NCATS), 2012)", "note": "Hit rate of the full screen: of about 380,000 compounds, about 25 (0.007%) were called active. The shares of active, inactive and inconclusive entries below differ from those in the screen. Calls follow the shape of the dose curve; as a rule, active = well fitted activation curve with a large enough effect; inconclusive = small, poorly fitted or top-dose-only effect; inactive = no such curve, though single readings can be large or run the other way. Potencies of inconclusive entries are left out as doubtful fits. Potency is read from the fitted curve at half-maximal effect; tags tell the direction and shape of the fitted curve.", "data": [{"target": "Glucagon-like peptide 1 receptor (Homo sapiens) (UniProt P43220)", "sequence (P43220 whole entry, looked up)": "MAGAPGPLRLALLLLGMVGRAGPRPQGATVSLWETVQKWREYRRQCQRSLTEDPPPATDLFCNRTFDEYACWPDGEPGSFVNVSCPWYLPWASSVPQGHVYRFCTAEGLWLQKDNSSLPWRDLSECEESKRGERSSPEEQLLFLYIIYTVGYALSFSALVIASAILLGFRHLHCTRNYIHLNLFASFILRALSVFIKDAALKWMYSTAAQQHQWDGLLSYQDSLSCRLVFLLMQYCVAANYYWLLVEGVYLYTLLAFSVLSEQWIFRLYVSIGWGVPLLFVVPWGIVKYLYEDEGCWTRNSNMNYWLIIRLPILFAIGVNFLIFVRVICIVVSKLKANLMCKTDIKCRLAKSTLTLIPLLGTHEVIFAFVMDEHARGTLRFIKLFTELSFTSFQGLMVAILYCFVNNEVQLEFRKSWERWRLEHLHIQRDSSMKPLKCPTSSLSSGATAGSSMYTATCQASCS", "assay": "qHTS of GLP-1 Receptor Agonists; as to activation: % of control where 0% means no effect", "conditions": "HEK293 GLP-1R CRE-luciferase, luminescence, 4-6 h, cells express a hypersensitive GLP-1R form; activation: at 45.6 µM (top of the series) unless noted", "values": [{"smiles": "Cc1onc(-c2ccccc2)c1C(=O)NCc1cccnc1", "activation": "inactive: -6.91%"}, {"smiles": "COc1ccccc1C1/C(=C(\\O)c2ccc3c(c2)OCCO3)C(=O)C(=O)N1Cc1cccnc1", "note": "(centres undefined)", "activation": "inactive: -3.96%"}, {"smiles": "CN(c1ccccc1)S(=O)(=O)c1ccc(NC(=S)NC(=O)C2CC2)cc1", "activation": "inactive: -2.43%"}, {"smiles": "CCOC(=O)c1cc(-c2ccccc2)nn1Cc1cc(CC)no1", "Potency": "inconclusive [activator, partial curve, poor fit]"}, {"smiles": "Clc1ccccc1/C=N/N1CCN(Cc2ccccc2)CC1", "activation": "inactive: -1.18%"}, {"smiles": "C=C(C)CNC(=S)NN=C1c2ccccc2-c2ccccc21", "Potency": "active: 11.2 µM"}, {"smiles": "CCOc1ccc2[nH]c(=O)c(CN(Cc3ccco3)C(=O)c3cccc(F)c3)cc2c1", "activation": "inactive: 9.38%"}, {"smiles": "CCCn1c2ccc(F)cc2c2nnc(SCCN3CCOCC3)nc21", "Potency": "inconclusive [activator, partial curve, poor fit]"}, {"smiles": "CCOC(=O)c1sc(/N=C/N(C)C)c(C(=O)OCC)c1C", "Potency": "inconclusive [activator, single point]"}, {"smiles": "Cc1cc(=O)oc(C)c1C(=O)NCc1ccc(F)cc1", "Potency": "inconclusive [activator, partial curve, poor fit]"}, {"smiles": "COc1ccc(CCC(=O)N2CCCC(Nc3ccccc3)C2)cc1OC", "note": "(centres undefined)", "Potency": "inconclusive [activator, single point]"}, {"smiles": "CC(C)N(CCNC(=O)c1oc(=O)c2ccccc2c1-c1ccccc1)Cc1ccco1", "Potency": "inconclusive [activator, partial curve, poor fit]"}, {"smiles": "COc1ccc2nc(SCc3ccccc3)nc(C)c2c1", "Potency": "inconclusive [activator, single point]"}, {"smiles": "O=[N+]([O-])c1ccc(NCc2ccc3c(c2)OCO3)cc1", "Potency": "inconclusive [activator, partial curve, poor fit]"}, {"smiles": "COc1ccc(C(=O)NCCc2c[nH]c3ccccc23)cc1OC", "Potency": "inconclusive [activator, partial curve, poor fit]"}, {"smiles": "CCc1cc2c(=O)n(-c3ccccc3)c(=S)[nH]c2s1", "activation": "inactive: -8.02%"}, {"smiles": "CC(=O)NCCOc1cccc2ccccc12", "activation": "inactive: 5.42%"}, {"smiles": "OC(CNCc1cccc(Cl)c1)c1ccccc1", "note": "(centres undefined)", "Potency": "inconclusive [activator, partial curve]"}, {"smiles": "O=C(CCCCn1c(=O)c2ccccc2n(Cc2cccc(Cl)c2)c1=O)NCc1ccc2c(c1)OCO2", "activation": "inactive: 1.07%"}, {"smiles": "CSc1nnc2ccc(-c3ccc(C)cc3)nn12", "Potency": "inconclusive [activator, partial curve, poor fit]"}, {"smiles": "COc1ccc(C(=O)COC(=O)c2sccc2C)cc1OC", "Potency": "inconclusive [activator, single point]"}, {"smiles": "COC(=O)c1ccc(NC(=O)Nc2ccc(F)cc2F)cc1", "activation": "inactive: 2.94%"}, {"smiles": "N#Cc1c(NC(=O)c2ccc(Cn3cc(Br)cn3)o2)sc2c1CCCCC2", "activation": "inactive: 4.69%"}, {"smiles": "COC(=O)Cc1c(C)c2ccc(OCC(C)=O)c(C)c2oc1=O", "Potency": "inconclusive [activator, single point]"}, {"smiles": "COc1ccc(Nc2ccc(S(=O)(=O)N3CCCCC3)cc2[N+](=O)[O-])cc1OC", "Potency": "inconclusive [activator, single point]"}, {"smiles": "Cc1ccc(-c2nc3ccccc3[nH]2)cc1NC(=O)c1sc2ccccc2c1Cl", "Potency": "inconclusive [activator, full curve, poor fit]"}, {"smiles": "C=CCN1C(=O)/C(=c2\\sc3nc(=O)c(Cc4ccccc4)nn3c2=O)c2ccccc21", "Potency": "inconclusive [activator, partial curve, poor fit]"}, {"smiles": "O=C(NCCc1ccccc1)c1ccc(-c2ccccc2Cl)o1", "Potency": "inconclusive [activator, single point]"}, {"smiles": "COC(=O)C1=CN(C(C)c2ccccc2)C=C(C(=O)OC)C1c1cc(OC)c(OC)c(OC)c1", "note": "(centres undefined)", "Potency": "inconclusive [activator, partial curve, poor fit]"}, {"smiles": "C=C(C)CSc1nncn1/N=C/c1ccc(OC)cc1", "Potency": "inconclusive [activator, single point]"}, {"smiles": "CCn1c(SCC(=O)OC)nc2sc3c(c2c1=O)CCC3", "Potency": "inconclusive [activator, single point]"}, {"smiles": "COc1ccc(-c2nnc(OCc3nc4ccccc4n3C)c3ccccc23)cc1", "Potency": "inconclusive [activator, partial curve]"}, {"smiles": "COc1ccc(CC(=O)OCC(=O)N2c3ccccc3CC2C)cc1OC", "note": "(centres undefined)", "Potency": "inconclusive [activator, partial curve, poor fit]"}, {"smiles": "COc1cc(COc2ccc(S(=O)(=O)N3CCOCC3)cc2[N+](=O)[O-])ccc1OC(F)F", "Potency": "inconclusive [activator, partial curve, poor fit]"}, {"smiles": "Cc1noc(C)c1NC(=O)Nc1cccc2c1O[C@@H](CN(C)C(=O)Nc1ccc3c(c1)OCO3)[C@@H](C)CN([C@H](C)CO)C2=O", "activation": "inactive: 2.75%"}, {"smiles": "S=C(NCC1CCCO1)Nc1ccc(Cl)c(Cl)c1", "note": "(centres undefined)", "activation": "inactive: -7.42%"}, {"smiles": "COc1cc(/C=C/C(=O)N(Cc2ccccc2)c2ccccn2)cc(OC)c1OC", "Potency": "inconclusive [activator, single point]"}, {"smiles": "COc1ccc(S(=O)(=O)n2ccc(C(C)Oc3ccc(-c4ccccc4)c(F)c3)n2)cc1", "note": "(centres undefined)", "activation": "inactive: 4.41%"}, {"smiles": "CC1CCc2sc3nc(N4CCN(CCO)CC4)n4ncnc4c3c2C1", "note": "(centres undefined)", "Potency": "inconclusive [activator, single point]"}, {"smiles": "Nc1nnnn1/N=C/c1ccccc1Cl", "activation": "inconclusive: 34.3% [activator]"}, {"smiles": "COc1ccc(CNS(=O)(=O)CCNC(=O)c2ccc(OC)cc2)cc1", "activation": "inconclusive: 44.6% [activator]"}, {"smiles": "CCc1nc2ccc(C(=O)Nc3ccc(OC)c(OC)c3)cn2c1N(CC)Cc1ccc(OC)c(OC)c1", "Potency": "inconclusive [activator, full curve]"}, {"smiles": "COc1ccc(C(=O)N=C2CCC(C#N)=C3c4cc(OC)c(OC)cc4CCN23)cc1", "Potency": "inconclusive [activator, single point]"}, {"smiles": "COc1cc(-c2cc(-c3ccc(F)cc3)nc(N)c2C#N)ccc1O", "Potency": "inconclusive [activator, partial curve, poor fit]"}, {"smiles": "Cc1ccsc1/C=C1/C(=O)NN(c2ccccc2)C1=O", "activation": "inactive: 1.24%"}, {"smiles": "Cc1nc2nc(C)c(CCC(=O)NCc3cccc(Cl)c3)c(C)n2n1", "activation": "inactive: 0.35%"}, {"smiles": "CC(C)c1ccc(Nc2nc(Cl)nc(NCCO)n2)cc1", "Potency": "inconclusive [activator, partial curve, poor fit]"}, {"smiles": "CC(=O)Nc1ccc(-c2cn3cc(C)ccc3n2)cc1", "activation": "inactive: 4.65%"}, {"smiles": "COc1cc(C2=Nc3ccc(Br)cc3C(c3ccccc3)N2CC(=O)NN)cc(OC)c1OC", "note": "(centres undefined)", "activation": "inactive: 6.38%"}, {"smiles": "Cc1cc(C)c2c3c(sc2n1)C(c1ccccc1)C(C#N)=C(N)O3", "note": "(centres undefined)", "Potency": "inconclusive [activator, partial curve, poor fit]"}, {"smiles": "CC(CC1CC(C)(C)OC1=O)C(=O)Nc1nncs1", "note": "(centres undefined)", "Potency": "inconclusive [activator, single point]"}, {"smiles": "CNC(=O)NC(=O)C(C)OC(=O)CCCSc1nc2ccccc2s1", "note": "(centres undefined)", "activation": "inactive: -9.01%"}, {"smiles": "CCOc1cc(CN2CCN(c3cccc(C(F)(F)F)c3)CC2)ccc1OC", "Potency": "inconclusive [activator, partial curve, poor fit]"}, {"smiles": "COc1cc(OC)c2c(c1)O/C(=C\\c1ccccc1)C2=O", "Potency": "inconclusive [activator, partial curve, poor fit]"}, {"smiles": "CCOc1ccc(CSc2nc(C)cc(COC)c2C#N)cc1OCC", "Potency": "inconclusive [activator, single point]"}, {"smiles": "O=C1c2cccc3cccc(c23)N1Cc1cccc(F)c1", "Potency": "inconclusive [activator, single point]"}, {"smiles": "COc1ccc(/C=C2\\CCC(C3CCCC3)C2=O)cc1", "note": "(centres undefined)", "Potency": "inconclusive [activator, full curve, poor fit]"}, {"smiles": "Nc1nc(Nc2ccccc2F)nc(N2CCCC2)c1[N+](=O)[O-]", "Potency": "inconclusive [activator, partial curve, poor fit]"}, {"smiles": "Cc1cc(C)c2nc(N(CCCN(C)C)C(=O)c3ccc(S(=O)(=O)N4CCCCCC4)cc3)sc2c1", "activation": "inactive: -6.02%"}, {"smiles": "Cc1ccc(S(=O)(=O)n2cc(C=O)c3ccccc32)cc1", "activation": "inactive: 9.78%"}, {"smiles": "O=C(/C=C/c1ccc(Cl)cc1)Nc1ccc(N2CCOCC2)cc1", "activation": "inactive: 4.49%"}, {"smiles": "Cc1c(C(=O)NCc2cccnc2)oc2ccc(S(=O)(=O)N3CCCCC3)cc12", "Potency": "inconclusive [activator, single point]"}, {"smiles": "C/C(Cl)=C\\Cn1c(O)c(N=NC(N)=S)c2ccccc21", "Potency": "inconclusive [activator, single point]"}, {"smiles": "COc1ccc([C@H]2CC(=O)C=C(c3ccc4c(c3)OCO4)C2)cc1OC", "Potency": "inconclusive [activator, partial curve, poor fit]"}, {"smiles": "O=C(CCCCl)NC(=S)Nc1cc(C(F)(F)F)ccc1N1CCOCC1", "activation": "inactive: 16.4%"}, {"smiles": "Clc1ccccc1-c1nnc2sc(-c3ccc4c(c3)OCO4)nn12", "Potency": "inconclusive [activator, partial curve, poor fit]"}, {"smiles": "CCc1nc(NCCCn2ccnc2)c2oc3ccccc3c2n1", "Potency": "inconclusive [activator, partial curve]"}, {"smiles": "COc1ccc(C(=O)COC(=O)c2cc([N+](=O)[O-])ccc2N2CCOCC2)c(OC)c1", "Potency": "inconclusive [activator, single point]"}, {"smiles": "Nc1nc2c(s1)CCc1c-2cnn1-c1ccccc1", "Potency": "inconclusive [activator, partial curve, poor fit]"}]}]}
